Test results reported in the supplement of paper PMC4967469.
IC50 is the fitted dose that halves viability relative to control wells, and lower means more sensitive; a limit (>, <) means that the fit lies beyond the doses tested. AUC sums up the same curve from the lowest dose to the 256-fold higher top dose: 1 means no effect, lower means more sensitive. Any top dose called inferred was derived from the fitted curves, not read from the paper. An entry number marks a drug with two screens in the source, which often give different values.

Compound: NC(=O)[C@@H](CCC(F)(F)F)N(Cc1ccc(-c2ncon2)cc1F)S(=O)(=O)c1ccc(Cl)cc1 [BMS-708163]
Experiment: Viability of human cancer cell lines after 72 h of drug (GDSC screen)
Conditions: screen: GDSC drug entry 205; top dose inferred
Experimental: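 Human cancer cell lines in 384-well plates, medium with 10% serum, drug for 72 h over a 256-fold dose range (nine 2-fold or five 4-fold steps up to the top dose). Adherent lines were fixed and stained with the nucleic acid dye Syto60, suspension lines read with resazurin; signal relative to control wells, capped at 0 and 100%. One two-parameter sigmoid per drug and line, fitted in a mixed model over all curves with the slope shared within a line.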

Row | Cell Line | AUC | IC50
1 | HO-1-u-1 (head and neck, adherent, top dose 10.24 µM) | 0.988 | > 10.2 µM
2 | HSC-4 (head and neck, adherent, top dose 10.24 µM) | 0.979 | > 10.2 µM
3 | BCPAP (thyroid, adherent, top dose 10.24 µM) | 0.987 | > 10.2 µM
4 | NCI-H526 (small cell lung carcinoma, suspension, top dose 10.24 µM) | 0.989 | > 10.2 µM
5 | MCF7 (breast, adherent, top dose 10.24 µM) | 0.986 | > 10.2 µM
6 | SW1573 (lung adenocarcinoma, adherent, top dose 10.24 µM) | 0.981 | > 10.2 µM
7 | CAL-85-1 (breast, adherent, top dose 10.24 µM) | 0.98 | > 10.2 µM
8 | NCI-SNU-1 (stomach, suspension, top dose 10.24 µM) | 0.982 | > 10.2 µM
9 | SAT (head and neck, adherent, top dose 10.24 µM) | 0.952 | > 10.2 µM
10 | SW13 (adrenal gland, adherent, top dose 10.24 µM) | 0.988 | > 10.2 µM
11 | H513 (mesothelioma, semi-adherent, top dose 10.24 µM) | 0.973 | > 10.2 µM
12 | T98G (glioma, adherent, top dose 10.24 µM) | 0.99 | > 10.2 µM
13 | KARPAS-620 (haematopoietic neoplasm, suspension, top dose 10.24 µM) | 0.991 | > 10.2 µM
14 | H2795 (mesothelioma, adherent, top dose 10.24 µM) | 0.977 | > 10.2 µM
15 | NCI-H1781 (lung adenocarcinoma, adherent, top dose 10.24 µM) | 0.976 | > 10.2 µM
16 | NCI-H2052 (mesothelioma, adherent, top dose 10.24 µM) | 0.975 | > 10.2 µM
17 | YAPC (pancreas, adherent, top dose 10.24 µM) | 0.984 | > 10.2 µM
18 | KG-1 (acute myeloid leukaemia, suspension, top dose 10.24 µM) | 0.989 | > 10.2 µM
19 | D-542MG (glioma, adherent, top dose 10.24 µM) | 0.984 | > 10.2 µM
20 | CAL-33 (head and neck, adherent, top dose 10.24 µM) | 0.986 | > 10.2 µM
21 | AN3-CA (endometrium, adherent, top dose 10.24 µM) | 0.985 | > 10.2 µM
22 | HEC-1 (endometrium, adherent, top dose 10.24 µM) | 0.989 | > 10.2 µM
23 | BB65-RCC (kidney, adherent, top dose 10.24 µM) | 0.983 | > 10.2 µM
24 | SNU-C1 (large intestine, suspension, top dose 2.56 µM) | 0.98 | > 2.56 µM

Row | Cell Line | AUC | IC50
25 | PANC-08-13 (pancreas, adherent, top dose 10.24 µM) | 0.977 | > 10.2 µM
26 | HTC-C3 (thyroid, adherent, top dose 10.24 µM) | 0.975 | > 10.2 µM
27 | P12-ICHIKAWA (T-cell lymphoblastic leukaemia, suspension, top dose 2.56 µM) | 0.994 | > 2.56 µM
28 | NB7 (neuroblastoma, adherent, top dose 10.24 µM) | 0.974 | > 10.2 µM
29 | MHH-ES-1 (Ewing sarcoma, adherent, top dose 10.24 µM) | 0.984 | > 10.2 µM
30 | RCC-MF (kidney, adherent, top dose 10.24 µM) | 0.977 | > 10.2 µM
31 | RT4 (bladder, adherent, top dose 10.24 µM) | 0.961 | > 10.2 µM
32 | OE21 (oesophagus, adherent, top dose 10.24 µM) | 0.972 | > 10.2 µM
33 | BE2-M17 (neuroblastoma, adherent, top dose 10.24 µM) | 0.987 | > 10.2 µM
34 | SNU-407 (large intestine, adherent, top dose 10.24 µM) | 0.98 | > 10.2 µM
35 | FLO-1 (oesophagus, adherent, top dose 10.24 µM) | 0.971 | > 10.2 µM
36 | NCI-H2228 (lung adenocarcinoma, adherent, top dose 10.24 µM) | 0.95 | > 10.2 µM
37 | NCI-H1395 (lung adenocarcinoma, adherent, top dose 10.24 µM) | 0.98 | > 10.2 µM
38 | EW-24 (Ewing sarcoma, semi-adherent, top dose 10.24 µM) | 0.993 | > 10.2 µM
39 | KYSE-270 (oesophagus, adherent, top dose 10.24 µM) | 0.988 | > 10.2 µM
40 | EJM (lymphoid neoplasm, semi-adherent, top dose 10.24 µM) | 0.986 | > 10.2 µM
41 | D-283MED (medulloblastoma, adherent, top dose 10.24 µM) | 0.99 | > 10.2 µM
42 | LB2241-RCC (kidney, adherent, top dose 10.24 µM) | 0.983 | > 10.2 µM
43 | NCI-H1436 (small cell lung carcinoma, suspension, top dose 10.24 µM) | 0.986 | > 10.2 µM
44 | RCC-FG2 (kidney, adherent, top dose 10.24 µM) | 0.981 | > 10.2 µM
45 | SW900 (lung squamous cell carcinoma, adherent, top dose 10.24 µM) | 0.98 | > 10.2 µM
46 | COLO-783 (melanoma, adherent, top dose 10.24 µM) | 0.99 | > 10.2 µM
47 | G-MEL (melanoma, adherent, top dose 10.24 µM) | 0.986 | > 10.2 µM
48 | OCI-AML2 (acute myeloid leukaemia, suspension, top dose 10.24 µM) | 0.995 | > 10.2 µM

Row | Cell Line | AUC | IC50
49 | M059J (glioma, adherent, top dose 10.24 µM) | 0.985 | > 10.2 µM
50 | HD-MY-Z (Hodgkin lymphoma, adherent, top dose 10.24 µM) | 0.985 | > 10.2 µM
51 | ARH-77 (myeloma, suspension, top dose 10.24 µM) | 0.984 | > 10.2 µM
52 | 639-V (bladder, adherent, top dose 10.24 µM) | 0.991 | > 10.2 µM
53 | OV-90 (ovary, adherent, top dose 10.24 µM) | 0.98 | > 10.2 µM
54 | LB771-HNC (head and neck, adherent, top dose 10.24 µM) | 0.977 | > 10.2 µM
55 | SK-N-SH (neuroblastoma, adherent, top dose 10.24 µM) | 0.986 | > 10.2 µM
56 | SW872 (soft tissue, adherent, top dose 10.24 µM) | 0.989 | > 10.2 µM
57 | ALL-PO (lymphoblastic leukaemia, suspension, top dose 10.24 µM) | 0.964 | > 10.2 µM
58 | SW684 (fibrosarcoma, adherent, top dose 10.24 µM) | 0.982 | > 10.2 µM
59 | ML-2 (acute myeloid leukaemia, suspension, top dose 10.24 µM) | 0.99 | > 10.2 µM
60 | NCI-H841 (small cell lung carcinoma, adherent, top dose 10.24 µM) | 0.985 | > 10.2 µM
61 | OS-RC-2 (kidney, adherent, top dose 10.24 µM) | 0.978 | > 10.2 µM
62 | MDA-MB-361 (breast, adherent, top dose 10.24 µM) | 0.989 | > 10.2 µM
63 | KP-N-YN (neuroblastoma, adherent, top dose 10.24 µM) | 0.986 | > 10.2 µM
64 | MHH-PREB-1 (B-cell leukaemia, suspension, top dose 10.24 µM) | 0.989 | > 10.2 µM
65 | SK-MEL-24 (melanoma, adherent, top dose 10.24 µM) | 0.983 | > 10.2 µM
66 | MLMA (hairy cell leukaemia, semi-adherent, top dose 10.24 µM) | 0.981 | > 10.2 µM
67 | ETK-1 (biliary tract, adherent, top dose 10.24 µM) | 0.983 | > 10.2 µM
68 | LOUCY (T-cell lymphoblastic leukaemia, suspension, top dose 2.56 µM) | 0.987 | > 2.56 µM
69 | A388 (skin, adherent, top dose 10.24 µM) | 0.984 | > 10.2 µM
70 | NCI-H1048 (small cell lung carcinoma, adherent, top dose 10.24 µM) | 0.983 | > 10.2 µM
71 | H3118 (head and neck, adherent, top dose 10.24 µM) | 0.983 | > 10.2 µM
72 | BB49-HNC (head and neck, adherent, top dose 10.24 µM) | 0.972 | > 10.2 µM

Same assay, conditions: top dose 5 µM; screen: GDSC drug entry 1072; top dose inferred

Row | Cell Line | AUC | IC50
73 | RCC-JF (kidney, adherent) | 0.969 | > 5 µM
74 | SK-MG-1 (glioma, adherent) | 0.987 | > 5 µM
75 | SNU-C5 (large intestine, adherent) | 0.976 | > 5 µM
76 | SW1116 (large intestine, adherent) | 0.932 | > 5 µM
77 | EMC-BAC-2 (lung adenocarcinoma, adherent) | 0.981 | > 5 µM
78 | SU-DHL-10 (B-cell lymphoma, suspension) | 0.997 | > 5 µM
